Results on 44 compounds are retold here after paper PMC4336329 (PLoS ONE, 2015).

About 14,000 (4.5%) of roughly 310,000 compounds showed an effect of 50% or more. The effect is printed as a negative number. The list shows a part of the results.
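Also: peak tail current of the secondary pulse compared with the same well before compound.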

The target of this test is human ether-à-go-go-related gene (hERG) potassium channel (human, UniProt Q12809). Put plainly: primary screen, population patch clamp on CHO cells stably expressing hERG.
human ether-à-go-go-related gene (hERG) potassium channel, sequence (Q12809 whole entry, looked up): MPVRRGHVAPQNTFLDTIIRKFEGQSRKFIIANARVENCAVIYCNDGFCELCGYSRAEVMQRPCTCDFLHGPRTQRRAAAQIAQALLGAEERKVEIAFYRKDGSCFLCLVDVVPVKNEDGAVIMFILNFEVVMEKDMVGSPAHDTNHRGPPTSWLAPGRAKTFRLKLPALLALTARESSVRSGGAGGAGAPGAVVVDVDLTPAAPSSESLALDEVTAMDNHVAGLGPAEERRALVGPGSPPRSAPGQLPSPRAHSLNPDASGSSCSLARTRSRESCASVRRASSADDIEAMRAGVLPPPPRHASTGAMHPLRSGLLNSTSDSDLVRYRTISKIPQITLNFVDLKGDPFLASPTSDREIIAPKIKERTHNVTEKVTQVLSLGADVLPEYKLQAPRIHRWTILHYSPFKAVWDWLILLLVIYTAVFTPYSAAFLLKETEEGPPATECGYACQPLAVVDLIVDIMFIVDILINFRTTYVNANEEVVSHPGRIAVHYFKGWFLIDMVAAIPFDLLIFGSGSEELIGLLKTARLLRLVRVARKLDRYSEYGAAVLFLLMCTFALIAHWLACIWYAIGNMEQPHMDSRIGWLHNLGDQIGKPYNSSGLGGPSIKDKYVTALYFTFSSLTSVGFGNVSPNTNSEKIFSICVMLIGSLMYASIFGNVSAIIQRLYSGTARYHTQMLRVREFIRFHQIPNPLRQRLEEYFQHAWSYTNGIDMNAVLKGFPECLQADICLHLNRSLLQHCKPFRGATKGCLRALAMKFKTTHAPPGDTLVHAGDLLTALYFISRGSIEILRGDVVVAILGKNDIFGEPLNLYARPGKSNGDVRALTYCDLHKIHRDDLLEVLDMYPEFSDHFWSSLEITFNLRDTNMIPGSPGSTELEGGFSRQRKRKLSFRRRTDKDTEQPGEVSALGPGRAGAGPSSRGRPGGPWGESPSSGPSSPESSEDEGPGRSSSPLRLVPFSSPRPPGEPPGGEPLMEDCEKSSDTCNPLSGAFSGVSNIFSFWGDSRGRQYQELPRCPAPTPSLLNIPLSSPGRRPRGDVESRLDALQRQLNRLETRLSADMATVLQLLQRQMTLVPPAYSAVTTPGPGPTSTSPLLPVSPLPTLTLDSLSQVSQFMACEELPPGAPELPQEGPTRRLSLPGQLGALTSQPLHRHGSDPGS
For `NS(=O)(=O)c1ccc(CNC(=O)CCS(=O)(=O)Cc2ccccc2)cc1`, the “hERG current change (%, negative = inhibition) at 10uM” value amounted to 2.83%.
To `Cc1onc(-c2ccccc2Cl)c1C(=O)NC(=S)Nc1ccccc1F` belongs 21.9%; to `Clc1ccc(C(c2ccccc2)N2CCN(c3ccccn3)CC2)cc1` (centres unmarked), -5.64%.
As for `CC(=O)N1CCN(S(=O)(=O)c2c(C)n(C)c(=O)n(C)c2=O)CC1`, the “hERG current change (%, negative = inhibition) at 10uM” value came out at 20.8%.
Consider `CC1=C(C(=O)Nc2cccnc2)C(c2ccccn2)n2nnnc2N1` (centres unmarked), for which the “hERG current change (%, negative = inhibition) at 10uM” value is given as 4.87%.
`CCCCC(=O)Nc1ccc(NC(=O)c2ccc([N+](=O)[O-])cc2Cl)cc1OC`: the “hERG current change (%, negative = inhibition) at 10uM” value came out at 4.26%.
For the compound `COc1ccc(NC(=O)Cc2ccccc2)cc1`, the “hERG current change (%, negative = inhibition) at 10uM” value was 4.36%.
The result for `C/C(=N\NC(=O)c1ccccn1)c1ccc(C(=O)O)s1` reads 6.52%.
To `CCCc1nc(NC2CCCCC2)c(C#N)c2c1COC(C)(C)C2` belongs -1.01%; to `COC(=O)C1=C(c2ccc(OCc3ccccc3)cc2)C[C@@H]2CC[C@H]1N2C(=O)NC1CCN(Cc2ccccc2)CC1`, -1.06%.
The result for `COc1ccc(N2C(=O)CC(N3CCN(S(=O)(=O)c4cc(C)ccc4C)CC3)C2=O)cc1` (centres unmarked) reads -6.8%.
On to `COc1ccc(CN2CCC(Cc3ccccc3)CC2)cc1OC.O=C(O)C(=O)O`, for which the “hERG current change (%, negative = inhibition) at 10uM” value is given as -70.3%.
On to `COc1ccc(C2Nc3ccccc3C(=O)N2NS(=O)(=O)c2ccc(C)cc2)cc1` (centres unmarked), for which the “hERG current change (%, negative = inhibition) at 10uM” value was -1.65%.
For the compound `Br.Cn1c(=N)n(CC(=O)O)c2ccccc21`, the “hERG current change (%, negative = inhibition) at 10uM” value is -5.99%.
Regarding `O=C1C=CC[C@H](/C=C/C[C@@H](O)C[C@H](O)CCc2ccccc2)O1`, the “hERG current change (%, negative = inhibition) at 10uM” value is given as -0.148%.
As to `Nc1ccccc1C(=O)NCC1(c2ccccc2)CCCC1`, the “hERG current change (%, negative = inhibition) at 10uM” value is recorded as 11.9%.
On to `CCOCCCN(CCC#N)S(=O)(=O)c1ccc(S(=O)(=O)N2CCCC2)cc1`, for which the “hERG current change (%, negative = inhibition) at 10uM” value came out at 11%.
For `CN(Cc1ccccc1)c1ccc(C(CC(N)=O)NC(=O)c2ccc(Br)cc2)cc1[N+](=O)[O-]` (centres unmarked), the “hERG current change (%, negative = inhibition) at 10uM” value was -4.62%.
As to `COCCn1cnnc1SCC(=O)Nc1ccc(Br)cc1F`, the “hERG current change (%, negative = inhibition) at 10uM” value is reported as -1.79%.
On to `CCN(CC)Cc1oc(CO)cc(=O)c1O`, for which the “hERG current change (%, negative = inhibition) at 10uM” value is given as 20.6%.
As for `C=CCC1NS(=O)(=O)OC(CCCC)C1O` (centres unmarked), the “hERG current change (%, negative = inhibition) at 10uM” value is recorded as 11.4%.
To `O=C(CCCc1ccccc1)Nc1ccc2c(c1)OCCO2` belongs 10.9%; to `O=C(O)c1ccc(Nc2nc3ccccc3nc2NS(=O)(=O)c2ccc(F)cc2)cc1`, -15.9%; to `O=C(NCC1CCCO1)C(c1ccncc1)N(Cc1cccs1)C(=O)CN1C(=O)c2ccccc2S1(=O)=O` (centres unmarked), 6.46%.
As for `O=C(COc1ccc(Cl)cc1Cl)NC(=O)c1ccccc1`, the “hERG current change (%, negative = inhibition) at 10uM” value is 20.1%.
Regarding `CCOC(=O)C1CCN(C(=O)c2ccc(OCC(=O)Nc3ccc(OCC)cc3)c(OC)c2)CC1`, the “hERG current change (%, negative = inhibition) at 10uM” value is listed as -19.5%.
To `CC1(c2ccccc2)NC(=O)N(CCN2C(=O)c3ccccc3C2=O)C1=O` (centres unmarked) belongs 6.96%.
For the compound `CCC(=O)NNC(=O)Cc1c(C)n(C(=O)c2ccc(Cl)cc2)c2ccc(OC)cc12`, the “hERG current change (%, negative = inhibition) at 10uM” value worked out at 10.5%.
`Cc1ccc(Cl)cc1NC(=O)C(NS(=O)(=O)c1cccs1)c1ccccc1` (centres unmarked): the “hERG current change (%, negative = inhibition) at 10uM” value is -3.95%.
`N#CC(c1ccccc1)N(CCCCl)C(=O)c1ccccc1` (centres unmarked): the “hERG current change (%, negative = inhibition) at 10uM” value is -18.9%.
With `Cc1ccc(-c2nc3ccsc3c(=O)o2)cc1`, the “hERG current change (%, negative = inhibition) at 10uM” value was found to be 11.9%.
As for `Cc1ccc(C(=O)N2C(=S)C(c3ccc(F)cc3)=NC23CCN(C)CC3)cc1`, the “hERG current change (%, negative = inhibition) at 10uM” value was -40.5%.
As for `O=C(NCc1ccccc1Cl)C1CCN(S(=O)(=O)N2CCCC2)CC1`, the “hERG current change (%, negative = inhibition) at 10uM” value stood at 12.5%.
As to `O=C(Nc1ccc(F)cc1F)c1ccccc1NC(=O)C1CC=CCC1C(=O)O` (centres unmarked), the “hERG current change (%, negative = inhibition) at 10uM” value is on record as 12.1%.
`COc1ccc2c([N+](=O)[O-])c(Cl)[nH]c2c1`: the “hERG current change (%, negative = inhibition) at 10uM” value worked out at 30.8%.
In the case of `C[N+]1(CC2COC(c3ccco3)O2)CCCCC1.[I-]` (centres unmarked), the “hERG current change (%, negative = inhibition) at 10uM” value was determined as 17.2%.
Turning to `Cc1nc2scc(-c3cccs3)c2c(=O)n1-n1cccc1`, the “hERG current change (%, negative = inhibition) at 10uM” value is on record as -26.3%.
For the compound `Cc1nnc(SCC(=O)NC2CCCC2)n1C(C)C`, the “hERG current change (%, negative = inhibition) at 10uM” value amounted to 9.47%.
Consider `CC(C)(C)c1ccc(C(=O)NCCN2CCCC2)cc1.Cl`, for which the “hERG current change (%, negative = inhibition) at 10uM” value is on record as -6.48%.
Turning to `O=C(OCc1ccc(F)cc1)c1cc2ccccc2cc1O`, the “hERG current change (%, negative = inhibition) at 10uM” value is on record as -13.1%.
With `CCc1nc2nc(C)c(NS(=O)(=O)c3ccc(CC(C)C)cc3)c(=O)n2[nH]1`, the “hERG current change (%, negative = inhibition) at 10uM” value is recorded as 9.34%.
Take `CC(=O)N1CCCc2cc(S(=O)(=O)N3CCCC(C(=O)Nc4cc(C)ccc4C)C3)ccc21` (centres unmarked): the “hERG current change (%, negative = inhibition) at 10uM” value was found to be 17.6%.
The result for `CC[n+]1c(/C=C/Nc2ccccc2)oc2ccccc21.[I-]` reads -70.4%; that for `Cc1cccc(CCNc2nc3ccc(C)cc3n3cnnc23)c1`, 17.3%.
